Assay results taken from the BET-seq Pho4 binding data (Le et al. 2018).
This is one part of the list. The energies were worked out here from pooled read counts, against the library average; single values are noisy.

biological target: T1, Pho4 (S. cerevisiae) (UniProt P07270); test: relative binding free energy (BET-seq); higher = weaker binding; settings: reference: library average
T1 sequence: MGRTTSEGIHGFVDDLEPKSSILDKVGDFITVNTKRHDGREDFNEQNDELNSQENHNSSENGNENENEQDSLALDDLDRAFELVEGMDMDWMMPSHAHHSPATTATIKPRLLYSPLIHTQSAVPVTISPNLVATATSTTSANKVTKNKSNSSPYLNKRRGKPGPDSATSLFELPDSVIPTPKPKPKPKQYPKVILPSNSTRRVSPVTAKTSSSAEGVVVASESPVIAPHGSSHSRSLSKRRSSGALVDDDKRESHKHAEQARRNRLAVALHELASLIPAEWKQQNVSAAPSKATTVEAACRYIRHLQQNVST

Row | Sequence | relative binding free energy [kJ/mol]
1 | AGATTCACGTGGTAGT | 1.17
2 | CTGGACACGTGTGGAT | 0.126
3 | AGCTGCACGTGGTTAG | -0.711
4 | AAAATCACGTGGTTAT | 0.586
5 | TGTGGCACGTGTCATG | 0.167
6 | GTGTACACGTGTTAGC | 0.126
7 | TGAATCACGTGTATTG | 0.418
8 | GGTGACACGTGTTGCG | 0.753
9 | GAATGCACGTGCTGGT | -0.0837
10 | TATTGCACGTGGGTAG | -0.502
11 | GGGGACACGTGGGAGG | -0.251
12 | CTTAACACGTGGTGGG | -0.586
13 | GTTTCCACGTGTTCGT | 0.795
14 | TAACGCACGTGGGTGC | -0.46
15 | AGCGACACGTGGTATG | 0.126
16 | GGGAACACGTGGGTGA | -0.209
17 | CAGGGCACGTGTCGGA | 0.126
18 | ATTTTCACGTGCTCGT | 0.711
19 | TTGGTCACGTGCAAAT | 0.92
20 | GAATGCACGTGTGAGG | 0.293
21 | TTAATCACGTGAAAGT | 1.26
22 | GGCTGCACGTGGTGCA | -0.293
23 | ACGGGCACGTGGTAGG | -0.544

Row | Sequence | relative binding free energy [kJ/mol]
24 | GGCTACACGTGGTTGG | 0.251
25 | GTTGACACGTGCGTTA | -0.251
26 | CGGTTCACGTGCTTTT | 1.55
27 | CCTTTCACGTGGATGT | 1.59
28 | TTCATCACGTGGAGGG | 0.418
29 | TGAGACACGTGAGATA | 1.17
30 | AATGTCACGTGTATGG | 0.126
31 | CTAAGCACGTGGGCTT | -0.418
32 | TGTGTCACGTGGTTTT | 0.46
33 | TGGCGCACGTGGTTTG | -0.418
34 | GCACTCACGTGGGGGG | -0.0837
35 | TAGTCCACGTGGTGGG | 0
36 | TGTAACACGTGGCGTA | -0.544
37 | TAGGACACGTGAGAGG | 1.46
38 | TGTGGCACGTGTCGTC | -0.544
39 | CTGCACACGTGGGTGG | -0.628
40 | TGTATCACGTGGGCCG | -0.335
41 | TAAAGCACGTGCATGG | -0.502
42 | AATCGCACGTGGGGTA | -0.795
43 | TTTGCCACGTGTGGAT | -0.0837
44 | TGGAACACGTGTGGGA | 0.209
45 | CAATTCACGTGTGAGG | 1.09
46 | GTCAGCACGTGATTTT | 0.962

Row | Sequence | relative binding free energy [kJ/mol]
47 | GCGGACACGTGAGGGG | 1.3
48 | GTGGTCACGTGCCGTT | 0.418
49 | GTCTTCACGTGGTAAG | 1.3
50 | CGGATCACGTGGGGGC | 0.293
51 | ATTTACACGTGAGTGC | 1.3
52 | ATATTCACGTGAAGGC | 1.92
53 | GTGTGCACGTGAAGTC | 1.13
54 | TTGGACACGTGTTTGG | 0.167
55 | AGGGGCACGTGCTTGG | -0.628
56 | TCGGGCACGTGTAAAT | 0.711
57 | AGTATCACGTGGTACT | 0.167
58 | GTCGTCACGTGATTTA | 1.05
59 | TTACGCACGTGGAGGG | -0.962
60 | CTTAGCACGTGGGTCG | -0.711
61 | ATTGACACGTGGGAAA | -0.126
62 | GTGTACACGTGTGGCA | 0.377
63 | TGCAACACGTGGGAGG | -0.586
64 | TCTTGCACGTGTGTCT | -0.46
65 | ATAACCACGTGAGGTT | 1.46
66 | TGCTTCACGTGTTTAA | 0.92
67 | CTGCACACGTGGTGGG | -0.669
68 | AGGGACACGTGTCGGG | -0.167
69 | GTTGGCACGTGTGTGG | 0.251

Row | Sequence | relative binding free energy [kJ/mol]
70 | TAGGACACGTGTAGAT | 0.795
71 | AGGCACACGTGCGGGT | -0.335
72 | AAAGGCACGTGGCGTA | -1.13
73 | CGCGTCACGTGGTGGT | 0.126
74 | GTGCACACGTGATGAG | 1.42
75 | GGGGCCACGTGTTGGA | 0.293
76 | GGAATCACGTGTGGGC | 0.586
77 | AGTTCCACGTGGCGTT | 0.0418
78 | TGTTGCACGTGCGGGG | -0.167
79 | GTGCTCACGTGGGGCG | -0.209
80 | CGAATCACGTGTTAGT | 0.753
81 | AAAGCCACGTGTGGTT | 0
82 | AATTTCACGTGGGTTA | 0.753
83 | GTGTTCACGTGAGTAA | 1.76
84 | TGGAGCACGTGGTGGG | -0.335
85 | GTTTGCACGTGGAGTC | -0.293
86 | TGTCGCACGTGTCAGG | -0.0837
87 | ATATTCACGTGAGTGC | 1.42
88 | CTGGTCACGTGTAGCG | 0.251
89 | GGTGGCACGTGTTTGA | -0.251
90 | AGTCGCACGTGGAGAG | 0
91 | CTTTTCACGTGAGTGA | 1
92 | GAAACCACGTGGTGGG | -0.126

Row | Sequence | relative binding free energy [kJ/mol]
93 | TAATTCACGTGGTGTC | 0.837
94 | CTGGGCACGTGAGTTG | 0.502
95 | TGGTGCACGTGTTAGG | -0.335
96 | GATGGCACGTGTGTTC | 0.46
97 | TGGTTCACGTGCTCTG | 1.55
98 | AAATTCACGTGGGTGA | 0.0837
99 | TAAATCACGTGATCGG | 1.21
100 | TACTGCACGTGTGTAT | 0.711
101 | ATAATCACGTGGGGCG | -0.0418
102 | TCTTTCACGTGGGGGG | 0.628
103 | GTGGGCACGTGCTCTT | -0.628
104 | CTAGGCACGTGTCGGT | 0.167
105 | TATGGCACGTGTGTCG | -0.0837
106 | TGTAGCACGTGGGTCT | -1.09
107 | TCGGACACGTGGGGTG | -0.126
108 | GAGGTCACGTGGTTGG | 0.753
109 | GGTCACACGTGCGTTG | 0.126
110 | GAGGTCACGTGTTAAT | 0.753
111 | GTGTGCACGTGCGGGA | -0.251
112 | AAGGTCACGTGGGAGA | -0.0837
113 | TGTTCCACGTGATTTA | 0.92
114 | ATGGTCACGTGTAGAA | 0.879
115 | ATTATCACGTGAGGCT | 1.05
